Here are results for 26 compounds from the antibiotic and cytotoxicity screens of Wong et al. (2023).

One assay has as its system HSkMC. The assay can be described thus: cytotoxicity call (relative viability < 0.9). The following applies: 10 µM.
The test system of a further assay is HepG2. The assay can be described thus: cytotoxicity call (relative viability < 0.9). The following applies: 10 µM.
The next assay deals with S. aureus RN4220. The assay can be described thus: growth inhibition call (relative growth <= 0.2). The following applies: 50 µM.

The structures appear in SMILES notation. The list shows a part of the results.

In the case of `COc1ccc(S(=O)(=O)N(C)C[C@H]2Oc3cc(C#CC4CC4)ccc3S(=O)(=O)N([C@H](C)CO)C[C@H]2C)cc1`, the cytotoxicity call with HSkMC and with HepG2 was “inactive” throughout. The growth inhibition call with S. aureus RN4220 is “inactive”.

For `C[C@@H]1CN([C@@H](C)CO)C(=O)c2ccccc2-c2ccccc2CO[C@@H]1CN(C)C(=O)Nc1ccccc1C(F)(F)F`, the cytotoxicity call in the assay with HSkMC was “inactive”. Also, the cytotoxicity call with HepG2 is “active”. In addition, in the assay on S. aureus RN4220, the growth inhibition call is “inactive”.

On to `CO[C@H]1CN(C)C(=O)c2ccc(NS(C)(=O)=O)cc2OC[C@@H](C)N(C(=O)C2CCCCC2)C[C@H]1C`, for which the cytotoxicity call with HSkMC and in the assay on HepG2 was “inactive” in each case. Besides, the growth inhibition call in the assay with S. aureus RN4220 was “inactive”.

On to `COc1ccc(S(=O)(=O)N(C)C[C@H]2OCCCC[C@@H](C)Oc3ccc(NC(=O)Nc4c(C)noc4C)cc3C(=O)N([C@H](C)CO)C[C@@H]2C)cc1`, for which the cytotoxicity call with HSkMC and in the assay with HepG2 was “inactive” each time. Besides, the growth inhibition call with S. aureus RN4220 was “inactive”.

`O=C(O)c1cc2ccccc2s1`: the cytotoxicity call with HSkMC and with HepG2 was “inactive” each time. Further, in the assay on S. aureus RN4220, the growth inhibition call was “inactive”.

Regarding `C[C@H]1CN([C@@H](C)CO)C(=O)Cc2cc(NC(=O)C3CCCCC3)ccc2O[C@H]1CN(C)S(=O)(=O)c1cn(C)cn1`, the cytotoxicity call in the assay on HSkMC and with HepG2 was “inactive” each time. Further, the growth inhibition call in the assay with S. aureus RN4220 was “inactive”.

For the compound `CS(=O)(=O)O.OC(CCN1CCCCC1)(c1ccccc1)c1ccccc1`, the cytotoxicity call in the assay with HSkMC and in the assay on HepG2 was “inactive” in each case. Further, in the assay with S. aureus RN4220, the growth inhibition call was “inactive”.

On to `O=C(C[C@H]1C[C@@H]2c3cc(NC(=O)c4ccc5c(c4)OCO5)ccc3O[C@@H]2[C@H](CO)O1)NCCN1CCCCC1`, for which the cytotoxicity call with HSkMC and with HepG2 was “inactive” throughout. Further, the growth inhibition call with S. aureus RN4220 is “inactive”.

Take `Cc1noc(C)c1NC(=O)N(C)C[C@@H]1Oc2ccc(NC(=O)Cn3cnnn3)cc2CC(=O)N([C@H](C)CO)C[C@H]1C`: the cytotoxicity call in the assay with HSkMC and in the assay with HepG2 was “inactive” throughout. Further, the growth inhibition call in the assay on S. aureus RN4220 was “inactive”.

For `COCC(=O)Nc1ccc2c(c1)OC[C@H](C)N(Cc1cccc(F)c1)C[C@H](C)[C@H](OC)CN(C)C2=O`, the cytotoxicity call in the assay on HSkMC and in the assay on HepG2 was “inactive” throughout. In the assay with S. aureus RN4220, the growth inhibition call was “inactive”.

Consider `COc1cccc(NC(=O)N(C)C[C@H]2Oc3cc(C#CC4(O)CCCC4)ccc3S(=O)(=O)N([C@H](C)CO)C[C@H]2C)c1`, for which, in the assay on HSkMC, the cytotoxicity call was “inactive”. Moreover, the cytotoxicity call in the assay on HepG2 is “active”. In addition, in the assay on S. aureus RN4220, the growth inhibition call was “inactive”.

For the compound `C[C@H]1CN([C@@H](C)CO)C(=O)c2cc(NC(=O)Nc3cccc4ccccc34)ccc2O[C@H]1CN(C)C(=O)Nc1ccccc1`, the cytotoxicity call with HSkMC was “inactive”. The cytotoxicity call in the assay on HepG2 is “active”. For the same compound, the growth inhibition call in the assay on S. aureus RN4220 is “inactive”.

On to `Cc1ccc(C(=O)N(CCCN)[C@@H](c2oc3cc(Cl)ccc3c(=O)c2Cc2ccccc2)C(C)C)cc1`, for which the cytotoxicity call in the assay with HSkMC and in the assay with HepG2 was “active” in each case. Further, the growth inhibition call with S. aureus RN4220 was “inactive”.

Take `C[C@@H]1CN([C@@H](C)CO)C(=O)c2cc(NS(=O)(=O)c3ccc(F)cc3)ccc2O[C@@H]1CN(C)Cc1ccc(Cl)c(Cl)c1`: the cytotoxicity call with HSkMC and in the assay with HepG2 was “inactive” throughout. For the same compound, the growth inhibition call in the assay on S. aureus RN4220 was “inactive”.

On to `O=C(CN1CCOCC1)NCC[C@@H]1CC[C@H](NS(=O)(=O)c2ccc(Cl)cc2)[C@H](CO)O1`, for which the cytotoxicity call in the assay with HSkMC and in the assay with HepG2 was “inactive” in each case. Further, the growth inhibition call in the assay on S. aureus RN4220 was “inactive”.

Take `C[C@H]1CN([C@@H](C)CO)C(=O)c2cc(C#CCc3ccccc3)cnc2O[C@H]1CN(C)C(=O)C1CCOCC1`: the cytotoxicity call in the assay with HSkMC and with HepG2 was “inactive” in each case. Moreover, in the assay on S. aureus RN4220, the growth inhibition call is “inactive”.

On to `Cc1ccc(S(=O)(=O)N(C)C[C@H]2Oc3ccc(NS(=O)(=O)c4ccc(F)cc4)cc3CC(=O)N([C@@H](C)CO)C[C@@H]2C)cc1`, for which the cytotoxicity call with HSkMC was “inactive”. The cytotoxicity call in the assay with HepG2 was “active”. Besides, the growth inhibition call with S. aureus RN4220 is “inactive”.

As for `CCCC#Cc1cnc2c(c1)C(=O)N([C@H](C)CO)C[C@H](C)[C@@H](CN(C)S(=O)(=O)c1cccc(OC)c1)O2`, the cytotoxicity call with HSkMC and in the assay with HepG2 was “inactive” each time. Further, the growth inhibition call with S. aureus RN4220 was “inactive”.

Consider `C[C@@H]1CCCCO[C@H](CN(C)Cc2ccc(C(=O)O)cc2)[C@H](C)CN([C@@H](C)CO)C(=O)c2cc(NC(=O)Nc3ccc(C(F)(F)F)cc3)ccc2O1`, for which the cytotoxicity call in the assay on HSkMC and with HepG2 was “inactive” each time. Further, in the assay on S. aureus RN4220, the growth inhibition call was “inactive”.

Turning to `CC1=NCCN1C(=O)[C@@H](N)CC(C)C`, the cytotoxicity call with HSkMC and with HepG2 was “inactive” throughout. Further, the growth inhibition call with S. aureus RN4220 was “inactive”.

Take `COc1ccc(N2C(=O)N3CCc4cc(OC)c(OC)cc4[C@@H]3[C@@H](Cc3ccccc3)[C@H]2COC(=O)NCCCCCC(=O)NO)cc1`: the cytotoxicity call in the assay with HSkMC and with HepG2 was “inactive” throughout. The growth inhibition call in the assay with S. aureus RN4220 is “inactive”.

Consider `Nc1nnc(-c2ccc([N+](=O)[O-])o2)o1`, for which the cytotoxicity call in the assay on HSkMC (human skeletal muscle cells) and in the assay with HepG2 was “inactive” in each case. Besides, in the assay on S. aureus RN4220, the growth inhibition call was “active”.

As to `Cc1noc(C)c1NC(=O)Nc1ccc2c(c1)CC(=O)N([C@@H](C)CO)C[C@@H](C)[C@@H](CN(C)S(=O)(=O)c1cn(C)cn1)O2`, the cytotoxicity call in the assay with HSkMC and with HepG2 was “inactive” each time. In addition, the growth inhibition call with S. aureus RN4220 was “inactive”.

In the case of `C[C@H](CO)N1C[C@H](C)[C@H](CN(C)Cc2ccc3c(c2)OCO3)OCCCC[C@H](C)Oc2ccc(NS(=O)(=O)c3ccc(Cl)cc3)cc2C1=O`, the cytotoxicity call with HSkMC and in the assay on HepG2 was “inactive” in each case. Moreover, in the assay with S. aureus RN4220, the growth inhibition call is “inactive”.

Consider `COc1ccccc1C#Cc1cnc2c(c1)C(=O)N([C@H](C)CO)C[C@H](C)[C@H](CN(C)C(=O)CC1CC1)O2`, for which the cytotoxicity call with HSkMC and in the assay with HepG2 was “inactive” each time. Moreover, in the assay with S. aureus RN4220, the growth inhibition call is “inactive”.

`COc1ccc(NC(=O)Nc2ccc3c(c2)CC(=O)N([C@@H](C)CO)C[C@H](C)[C@@H](CN(C)S(=O)(=O)c2cn(C)cn2)O3)cc1`: the cytotoxicity call with HSkMC and in the assay on HepG2 was “inactive” throughout. Besides, the growth inhibition call in the assay with S. aureus RN4220 was “inactive”.
